# Reference: paper PMC10215934, “Daptomycin Pharmacokinetics in Blood and Wound Fluid in Critical Ill Patients with Left Ventricle Assist Devices” (Antibiotics, 2023)
# What was measured:
# [1] = Safety: adverse events and laboratory values under daptomycin; assay type: in vivo, human; conditions: for Lactatdehydrogenase / creatinine kinase: mean ± SD; for creatinine kinase: n = 9
# From the text: Further, we collected patient demographics, clinical and laboratory data, microbiological findings, the duration of anti-infective therapy, and clinical outcome information. The institutional review board approved the study, and written informed consent was obtained from all patients before participation.
# [2] = Daptomycin pharmacokinetics in blood serum, HPLC-UV; conditions: second and third day of antibiotic administration
# Description: (§1) This single-center prospective trial was carried out in the intensive care unit 39 of the department of anesthesia and intensive care medicine at the university hospital of Tübingen from April 2017 to March 2019. All patients scheduled for implantation of a left ventricular assist device were screened for inclusion and exclusion criteria. All patients received prophylactic antibiotic therapy, including daptomycin, during the first 5 or 7 postoperative days. Daptomycin (5 to 8 mg per kg of body weight) was infused over 30 min, once daily, at 7 a.m. Samples were taken following the schedule below (Table 3).
# Blood samples were drawn from the arterial catheter already in place and considering hygiene requirements. The fluid samples from the drain systems were taken from the incorporated port under consideration of the standard hygienic procedures to avoid any contamination of the system. The samples were labeled with the number of the patient, the time of collection, and the date following the study protocol. All samples were centrifuged, and the supernatant was stored at −80 °C until dispatch to the laboratory in Heidenheim (Department of Pharmacy, General Hospital of Heidenheim). Measurements were performed using high-performance liquid chromatography with ultraviolet detection (HPLC-UV). […]
# [3] = Daptomycin concentration in wound (drainage) fluid, HPLC-UV; conditions: drainage fluid, LVAD patients, 5-8 mg/kg iv once daily, HPLC-UV, mean ± SD, n = 9
# Description: as §1
# Blood samples were drawn from the arterial catheter already in place and considering hygiene requirements. The fluid samples from the drain systems were taken from the incorporated port under consideration of the standard hygienic procedures to avoid any contamination of the system. The samples were labeled with the number of the patient, the time of collection, and the date following the study protocol. All samples were centrifuged, and the supernatant was stored at −80 °C until dispatch to the laboratory in Heidenheim (Department of Pharmacy, General Hospital of Heidenheim). Measurements were performed using high-performance liquid chromatography with ultraviolet detection (HPLC-UV).
# Daptomycin (5–8 mg per kg body weight; MSD; Switzerland) was infused intravenously once daily as part of an anti-infective regime to prevent early infections of either the implanted pump or the driveline at 7 am. Blood samples were drawn from the arterial catheter already in place, and samples of wound fluids were taken from the drainage system directly from the incorporated port before they reached the container at indicated time points, considering standard hygienic requirements.
# The HPLC-UV measurement for daptomycin was conducted as part of the routine TDM program at the hospital of Heidenheim. Although data for certain target levels are sparse, there is an approach to reach AUC24/MHK >666 mg*h/L for effectivity and trough levels <24 mg/L and to minimize musculosceletal toxicity. […]
# [4] = cited from earlier work
# [5] = Penetration of daptomycin from blood into wound fluid (AUCdrain/AUCblood, Rmcorr correlation); assay type: in vivo, human; conditions: mean ± SD, n = 9
# Description: Samples were taken following the schedule below (Table 3).
# All daptomycin values in the blood serum and wound fluids, from pleura and mediastinum, were examined among themselves and over time using a repeated measure correlation. Continuous measures were summarized as the means, standard deviation, medians, and interquartile ranges (IQR) according to the data distribution. The normality of the distribution was assessed by investigating skewness and kurtosis, as well as QQ graphs, box plots, and histograms. The association between blood and wound fluid daptomycin mean levels was examined using repeated measures correlation (R package rmcorr; version 0.5.4), which determined the relationship between two continuous variables while controlling for individual variances. The rmcorr correlation coefficient is a common statistical method for paired measurements assessed on two or more occasions for multiple individuals. Similar to the Pearson correlation coefficient, the rmcorr coefficient (rrm) ranges from −1 to +1 and reports the strength of the linear association between two variables. Linear mixed effect models assessed the difference in the mean daptomycin concentration in the blood serum during the three-time points with random intercepts; the slopes were set as fixed parameters. A two-tailed p-value below 0.05 was considered statistically significant. […]
# [6] = nine LVAD patients, treatment 5-10 days
compound,measurement,setting,value
CCCCCCCCCC(=O)N[C@@H](Cc1c[nH]c2ccccc12)C(=O)N[C@H](CC(N)=O)C(=O)N[C@@H](CC(=O)O)C(=O)N[C@@H]1C(=O)NCC(=O)N[C@@H](CCCN)C(=O)N[C@@H](CC(=O)O)C(=O)N[C@H](C)C(=O)N[C@@H](CC(=O)O)C(=O)NCC(=O)N[C@H](CO)C(=O)N[C@@H]([C@H](C)CC(=O)O)C(=O)N[C@@H](CC(=O)c2ccccc2N)C(=O)O[C@@H]1C [Daptomycin],Lactatdehydrogenase,[1]; day 1,343.9 ± 23.1 U/L
same,creatinine kinase,[1]; day 1,631.8 ± 209.2 U/L
same,Lactatdehydrogenase,[1]; day 2,299.8 ± 15.9 U/L
same,creatinine kinase,[1]; day 2,409.8 ± 193.8 U/L
same,creatinine kinase,[1]; day 3,362.6 ± 168.3 U/L
same,adverse events (AEs) or serious events (SAEs),[1]; [6],No adverse events (AEs) or serious events (SAEs) occurred
same,"rarer events (rhabdomyolysis, red-man syndrome, thrombocytopenia, eosinophilic pneumonia, fungal infection)",[1]; [6],No other rarer events were reported
same,Lactatdehydrogenase,[1]; postoperative,366.3 ± 29.7 U/L
same,creatinine kinase,[1]; postoperative,542.9 ± 170.7 U/L
same,Cmin in blood,[2],> 24300 ng/mL
same,AUCdrain,[3]; Day 1 (24 h),383 ± 140 µg·h/mL
same,AUCdrain,[3]; Day 2 (48 h),512 ± 173 µg·h/mL
same,AUCdrain,[3]; Day 3 (72 h),695 ± 291 µg·h/mL
same,AUC24/MHK target for effectivity,[4],> 666 µg·h/mL
same,AUC necessary for sufficient anti-microbial effects,[4]; metanalysis,over 666 µg*h/mL
same,low Cmin associated with poorer outcomes,"[4]; patients with bacteraemia, complicated skin or soft-tissue infections, endovascular infections",< 3180 ng/mL
same,PR: penetration ratio (AUCdrain/AUCblood),[5]; Day 1,0.4 ± 0.1
same,PR: penetration ratio (AUCdrain/AUCblood),[5]; Day 2,0.4 ± 0.1
